Experimental data taken from article PMC3898904.
These are yes or no findings as the source states them, for the method shown. Some binding calls cover weakened binding; strength is not graded here. Sequences can lack the tags named with a protein.

Protein sequences, listed by entry. Tags and fused reporters are not part of them.
UniProt Q94A79: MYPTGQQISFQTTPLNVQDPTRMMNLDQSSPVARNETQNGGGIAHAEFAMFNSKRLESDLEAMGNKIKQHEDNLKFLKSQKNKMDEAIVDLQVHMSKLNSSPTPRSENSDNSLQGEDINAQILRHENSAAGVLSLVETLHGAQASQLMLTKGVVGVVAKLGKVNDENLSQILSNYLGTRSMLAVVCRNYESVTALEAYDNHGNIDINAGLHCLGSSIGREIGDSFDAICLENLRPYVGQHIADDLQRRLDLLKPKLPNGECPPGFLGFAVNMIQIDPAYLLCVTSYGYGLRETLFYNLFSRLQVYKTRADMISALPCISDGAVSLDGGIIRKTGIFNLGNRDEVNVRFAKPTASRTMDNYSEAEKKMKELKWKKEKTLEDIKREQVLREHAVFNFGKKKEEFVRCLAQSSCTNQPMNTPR

T1: MORC2 (yeast two-hybrid fusion) (Arabidopsis thaliana) (UniProt Q5FV35)
T1 sequence: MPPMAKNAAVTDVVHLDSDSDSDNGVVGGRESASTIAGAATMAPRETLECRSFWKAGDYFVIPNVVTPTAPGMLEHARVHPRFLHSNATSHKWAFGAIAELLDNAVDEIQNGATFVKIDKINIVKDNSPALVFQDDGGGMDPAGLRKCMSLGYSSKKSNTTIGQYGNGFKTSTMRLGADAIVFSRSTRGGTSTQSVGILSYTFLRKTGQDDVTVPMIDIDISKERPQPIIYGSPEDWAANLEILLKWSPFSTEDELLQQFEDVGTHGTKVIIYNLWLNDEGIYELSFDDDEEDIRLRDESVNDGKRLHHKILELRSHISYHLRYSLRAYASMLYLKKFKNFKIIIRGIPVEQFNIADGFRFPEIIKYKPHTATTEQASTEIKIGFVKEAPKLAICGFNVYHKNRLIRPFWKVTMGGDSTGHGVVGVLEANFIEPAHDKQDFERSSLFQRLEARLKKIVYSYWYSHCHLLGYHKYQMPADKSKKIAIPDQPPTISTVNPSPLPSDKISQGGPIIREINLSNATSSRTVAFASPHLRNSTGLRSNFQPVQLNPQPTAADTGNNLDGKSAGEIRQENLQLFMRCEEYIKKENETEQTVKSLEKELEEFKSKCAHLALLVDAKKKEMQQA

T2: MORC1 (yeast two-hybrid fusion) (Arabidopsis thaliana) (UniProt Q84WV6)
T2 sequence: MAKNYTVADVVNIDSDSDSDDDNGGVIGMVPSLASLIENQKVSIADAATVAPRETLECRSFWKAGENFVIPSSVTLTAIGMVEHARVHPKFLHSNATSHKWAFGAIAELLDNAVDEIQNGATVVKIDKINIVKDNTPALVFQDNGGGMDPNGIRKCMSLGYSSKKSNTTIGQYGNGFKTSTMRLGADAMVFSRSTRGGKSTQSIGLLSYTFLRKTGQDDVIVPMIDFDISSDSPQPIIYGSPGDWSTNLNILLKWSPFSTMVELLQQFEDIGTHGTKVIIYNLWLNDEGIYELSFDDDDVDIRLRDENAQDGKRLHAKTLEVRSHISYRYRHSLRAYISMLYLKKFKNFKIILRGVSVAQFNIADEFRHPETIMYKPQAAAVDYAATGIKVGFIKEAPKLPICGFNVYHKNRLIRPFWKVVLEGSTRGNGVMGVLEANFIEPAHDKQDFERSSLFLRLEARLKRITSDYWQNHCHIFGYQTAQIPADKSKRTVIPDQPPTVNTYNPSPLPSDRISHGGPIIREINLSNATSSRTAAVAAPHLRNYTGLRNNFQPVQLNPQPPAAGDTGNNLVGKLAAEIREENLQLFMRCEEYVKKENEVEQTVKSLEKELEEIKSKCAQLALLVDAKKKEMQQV

T3: MORC6 (yeast two-hybrid fusion) (Arabidopsis thaliana) (UniProt Q56Y74)
T3 sequence: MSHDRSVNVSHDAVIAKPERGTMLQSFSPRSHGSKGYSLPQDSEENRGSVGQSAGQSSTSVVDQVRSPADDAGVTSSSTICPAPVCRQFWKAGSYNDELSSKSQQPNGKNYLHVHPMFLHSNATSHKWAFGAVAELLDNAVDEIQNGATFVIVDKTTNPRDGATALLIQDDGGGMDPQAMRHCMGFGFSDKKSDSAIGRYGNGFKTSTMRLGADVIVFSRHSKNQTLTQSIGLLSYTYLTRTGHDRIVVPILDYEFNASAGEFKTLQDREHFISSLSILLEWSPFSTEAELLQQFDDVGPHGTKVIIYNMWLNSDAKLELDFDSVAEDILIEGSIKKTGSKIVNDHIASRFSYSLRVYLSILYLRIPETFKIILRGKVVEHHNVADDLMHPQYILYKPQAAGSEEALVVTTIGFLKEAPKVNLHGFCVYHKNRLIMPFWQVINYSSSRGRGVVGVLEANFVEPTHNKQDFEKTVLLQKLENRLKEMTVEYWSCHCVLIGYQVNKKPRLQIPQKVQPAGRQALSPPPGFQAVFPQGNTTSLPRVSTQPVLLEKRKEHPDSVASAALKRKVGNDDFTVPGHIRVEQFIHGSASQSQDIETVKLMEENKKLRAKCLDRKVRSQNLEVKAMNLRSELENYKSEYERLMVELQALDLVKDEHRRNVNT


Key:
Experiment in all cases: two-hybrid; GAL4-AD (pGADT7) and GAL4-BD (pGBKT7) fusions in yeast strain PJ694a; growth on SD-TLH, 20 mM 3-AT
[1] = target: T1, MORC2 (yeast two-hybrid fusion) (Arabidopsis thaliana)
[2] = target: T2, MORC1 (yeast two-hybrid fusion) (Arabidopsis thaliana)
[3] = target: T3, MORC6 (yeast two-hybrid fusion) (Arabidopsis thaliana)
[4] = target: DMS3 (yeast two-hybrid fusion) (Arabidopsis thaliana) (UniProt Q94A79)

| binding [1] | binding [2] | binding [3] | binding [4] | Binder |
| --- | --- | --- | --- | --- |
| binds | binds | – | – | MORC6 (yeast two-hybrid fusion) (protein, UniProt Q56Y74 1-663) MSHDRSVNVSHDAVIAKPERGTMLQSFSPRSHGSKGYSLPQDSEENRGSVGQSAGQSSTSVVDQVRSPADDAGVTSSSTICPAPVCRQFWKAGSYNDELSSKSQQPNGKNYLHVHPMFLHSNATSHKWAFGAVAELLDNAVDEIQNGATFVIVDKTTNPRDGATALLIQDDGGGMDPQAMRHCMGFGFSDKKSDSAIGRYGNGFKTSTMRLGADVIVFSRHSKNQTLTQSIGLLSYTYLTRTGHDRIVVPILDYEFNASAGEFKTLQDREHFISSLSILLEWSPFSTEAELLQQFDDVGPHGTKVIIYNMWLNSDAKLELDFDSVAEDILIEGSIKKTGSKIVNDHIASRFSYSLRVYLSILYLRIPETFKIILRGKVVEHHNVADDLMHPQYILYKPQAAGSEEALVVTTIGFLKEAPKVNLHGFCVYHKNRLIMPFWQVINYSSSRGRGVVGVLEANFVEPTHNKQDFEKTVLLQKLENRLKEMTVEYWSCHCVLIGYQVNKKPRLQIPQKVQPAGRQALSPPPGFQAVFPQGNTTSLPRVSTQPVLLEKRKEHPDSVASAALKRKVGNDDFTVPGHIRVEQFIHGSASQSQDIETVKLMEENKKLRAKCLDRKVRSQNLEVKAMNLRSELENYKSEYERLMVELQALDLVKDEHRRNVNT |
| no binding | – | no binding | binds | SUVH2 (yeast two-hybrid fusion) (protein, UniProt O22781 1-651) MSTLLPFPDLNLMPDSQSSTAGTTAGDTVVTGKLEVKSEPIEEWQTPPSSTSDQSANTDLIAEFIRISELFRSAFKPLQVKGLDGVSVYGLDSGAIVAVPEKENRELIEPPPGFKDNRVSTVVVSPKFERPRELARIAILGHEQRKELRQVMKRTRMTYESLRIHLMAESMKNHVLGQGRRRRSDMAAAYIMRDRGLWLNYDKHIVGPVTGVEVGDIFFYRMELCVLGLHGQTQAGIDCLTAERSATGEPIATSIVVSGGYEDDEDTGDVLVYTGHGGQDHQHKQCDNQRLVGGNLGMERSMHYGIEVRVIRGIKYENSISSKVYVYDGLYKIVDWWFAVGKSGFGVFKFRLVRIEGQPMMGSAVMRFAQTLRNKPSMVRPTGYVSFDLSNKKENVPVFLYNDVDGDQEPRHYEYIAKAVFPPGIFGQGGISRTGCECKLSCTDDCLCARKNGGEFAYDDNGHLLKGKHVVFECGEFCTCGPSCKSRVTQKGLRNRLEVFRSKETGWGVRTLDLIEAGAFICEYAGVVVTRLQAEILSMNGDVMVYPGRFTDQWRNWGDLSQVYPDFVRPNYPSLPPLDFSMDVSRMRNVACYISHSKEPNVMVQFVLHDHNHLMFPRVMLFALENISPLAELSLDYGLADEVNGKLAICN |
